Measurements as given in the supplement of paper PMC10441789.
Some of the results follow. Antibody binding of pooled human sera (four to six donors per pool; dilution not stated) to peptides of the Trypanosoma cruzi antigen TSSA on microarrays. Quantile-normalised fluorescence in arbitrary units, mean of duplicate arrays; higher = more binding. No active / inactive call. The uninfected pools are read here as the healthy donors of the same country. The strongest signals lie near the top of the scale (about 60,000).

Columns and labels:
Experiment in all cases: antibody binding signal (normalised fluorescence) (arbitrary fluorescence units); higher = stronger serum antibody binding to peptide
[1] = test system: pooled sera of chronic Chagas disease patients, Bolivia
Procedure: (§1)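 Microarray of 15-residue peptides over residues 30-55 of Trypanosoma cruzi TSSAII, each with 1 to 10 substitutions at naturally variable positions, probed with one serum pool per country.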

[2] = test system: pooled sera of chronic Chagas disease patients, Brazil
Procedure: as §1

[3] = test system: pooled sera of chronic Chagas disease patients, Colombia
Procedure: as §1

[4] = test system: pooled sera of chronic Chagas disease patients, Mexico
Procedure: as §1

[5] = test system: pooled sera of chronic Chagas disease patients, USA
Procedure: as §1

[6] = test system: pooled sera of uninfected people, Argentina
Procedure: as §1

[7] = test system: pooled sera of uninfected people, Bolivia
Procedure: as §1

[8] = test system: pooled sera of uninfected people, Brazil
Procedure: as §1

[9] = test system: pooled sera of uninfected people, Colombia
Procedure: as §1

[10] = test system: pooled sera of uninfected people, Mexico
Procedure: as §1

[11] = test system: pooled sera of uninfected people, USA
Procedure: as §1

Sequence	antibody binding signal [1]	antibody binding signal [2]	antibody binding signal [3]	antibody binding signal [4]	antibody binding signal [5]	antibody binding signal [6]	antibody binding signal [7]	antibody binding signal [8]	antibody binding signal [9]	antibody binding signal [10]	antibody binding signal [11]
SGTEKKTAAGEAPSQ	11700	5960	622	663	8800	191	579	426	1160	192	105
NKPAAGGTPSPSGAS	515	4760	2040	606	320	609	1120	1660	784	211	1380
GKEKKTAAGETPSPS	259	418	2720	2510	3440	125	108	94.9	216	84.9	543
SGKDKKTAAGEAPSQ	2020	1400	1020	889	4200	178	251	101	467	93.2	91.8
GTDNKTATGEAPSPS	30300	33000	188	280	21300	160	586	1110	116	102	113
GTDKKTATGEAPSQP	21800	38200	1210	803	19700	221	162	272	97	232	109
KEKKPAAGGTPSQPG	205	232	1280	136	287	185	83.1	455	119	118	359
PPSGTEKKTATGGAP	1160	15700	960	2390	3530	1650	545	154	337	207	417
TPPSGTDKKAATGGT	3020	27700	3210	38500	1770	421	132	948	691	918	257
DKKTATGETPSPPGA	487	1150	251	274	6860	259	172	207	128	283	400
PSGKENKAAAGGAPS	1770	12100	14300	11400	9500	5400	1630	115	514	218	164
TENKTATGGAPSQSG	1080	1090	372	798	525	378	237	262	153	594	225
TENKAATGEAPSQSG	46200	39600	190	218	27700	299	165	154	167	210	225
